# From the antibiotic and cytotoxicity screens of Wong et al. (2023)
# The list shows a part of the results.
# What was measured:
# [1] = system: HSkMC (human skeletal muscle cells); assay: cytotoxicity call (relative viability < 0.9); conditions: 10 µM
# [2] = system: S. aureus RN4220; assay: growth inhibition call (relative growth <= 0.2); conditions: 50 µM
SMILES,cytotoxicity call [1],growth inhibition call [2]
NCCN1CCOCC1,inactive,inactive
CC(C)N1CCN(c2ccc(OCC3COC(Cn4cncn4)(c4ccc(Cl)cc4Cl)O3)cc2)CC1 (configuration not stated),inactive,inactive
C[C@@H]1CN([C@@H](C)CO)C(=O)c2cccc(NS(C)(=O)=O)c2O[C@H]1CN(C)Cc1ccc2c(c1)OCO2,inactive,inactive
C[C@H](CO)N1C[C@H](C)[C@H](CN(C)C(=O)NC2CCCCC2)OCCCC[C@H](C)Oc2ccc(NC(=O)Nc3ccc(F)cc3)cc2C1=O,inactive,inactive
C[C@@H]1CCCCO[C@@H](CN(C)S(=O)(=O)c2ccc(Cl)cc2)[C@@H](C)CN([C@@H](C)CO)C(=O)c2cc(NC(=O)Nc3ccc(C(F)(F)F)cc3)ccc2O1,inactive,inactive
CC(C)CC(=O)N1CCN(S(C)(=O)=O)CC1,inactive,inactive
C[C@@H]1CN([C@H](C)CO)C(=O)c2cc(NC(=O)CCC(F)(F)F)ccc2O[C@@H](C)CCCCO[C@H]1CN(C)S(=O)(=O)c1cccs1,inactive,inactive
C[C@@H]1CN([C@H](C)CO)S(=O)(=O)c2ccc(/C=C/c3ccccc3)cc2O[C@H]1CN(C)C(=O)Nc1cc(F)ccc1F,active,inactive
COCC#Cc1ccc([C@@H]2[C@H]3CN(C(=O)c4ccncc4)CC(=O)N3[C@H]2CO)cc1,inactive,inactive
C[C@@H]1CN([C@H](C)CO)C(=O)c2cc(NC(=O)c3ccccc3)ccc2O[C@@H](C)CCCCO[C@H]1CN(C)C(=O)Nc1ccc(C(F)(F)F)cc1,inactive,inactive
C[C@H](CO)N1C[C@H](C)[C@@H](CN(C)Cc2ccc(-c3ccccc3)cc2)OCc2ccccc2-c2c(n(C)c3ccccc23)C1=O,inactive,inactive
